# Source: the supplement of paper PMC4604168 (melanoma cell lines)
# Some of the results follow. Many values rest on one well or one pass, so single values are uncertain.
# Assays:
# Test in all cases: cell count relative to DMSO control; melanoma cells; higher = more viable cells
# Settings in all cases: library dose: low library concentration; 72 h
# MZ2-MEL = system: MZ2-MEL
# MeWo = system: MeWo
# RPMI7951 = system: RPMI7951
# RVH-421 = system: RVH-421
# SkMel28 = system: SkMel28
# SkMel2 = system: SkMel2
# SkMel30 = system: SkMel30
# SkMel5 = system: SkMel5
# UACC257 = system: UACC257
# UACC62 = system: UACC62
# 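Also: cell number obtained by counting DAPI-stained nuclei in high-throughput microscope images with image analysis software, screen run in 1,536-well plates.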
SMILES,cell count (MZ2-MEL) [%],cell count (MeWo) [%],cell count (RPMI7951) [%],cell count (RVH-421) [%],cell count (SkMel28) [%],cell count (SkMel2) [%],cell count (SkMel30) [%],cell count (SkMel5) [%],cell count (UACC257) [%],cell count (UACC62) [%]
"Cn1cnc2c(F)c(Nc3ccc(Br)cc3Cl)c(C(=O)NOCCO)cc21 [selumetinib] + O=C(Nc1cccc(Cl)c1)Nc1ncc(CCNc2ncnc3ccsc23)s1 [SNS314] (first compound 0.015 µM, partner dose 0.0008 µM)",102,89.2,117,84.5,104,77.2,65,109,87.9,95.3
"C[C@]1(O)C[C@@H](c2nc(-c3ccc4ccc(-c5ccccc5)nc4c3)c3c(N)nccn32)C1 + COc1ccc(COc2ccc(Cc3cnc(N)nc3N)cc2OC)cc1 [GW2580] (first compound 0.4 µM, partner dose 1 µM)",97.4,87.9,108,9.45,92.7,96.1,101,87.4,76.2,81.8
"CCN(CC)CCNC(=O)c1c(C)[nH]c(/C=C2\C(=O)Nc3ccc(F)cc32)c1C [sunitinib] + COc1cc2c(Oc3ccc4[nH]c(C)cc4c3F)ncnc2cc1OCCCN1CCCC1 [cediranib] (first compound 0.4 µM, partner dose 0.4 µM)",104,94.5,91.7,102,76.4,95.3,82.3,104,96.4,88.1
"COc1cc([C@@H]2c3cc4c(cc3[C@@H](O[C@@H]3O[C@@H]5CO[C@@H](C)O[C@H]5[C@H](O)[C@H]3O)[C@H]3COC(=O)[C@H]23)OCO4)cc(OC)c1O [etoposide] + C=CCn1c(=O)c2cnc(Nc3ccc(N4CCN(C)CC4)cc3)nc2n1-c1cccc(C(C)(C)O)n1 [MK1775] (first compound 0.02 µM, partner dose 0.02 µM)",91.1,83.6,95.9,84.8,82.5,98.5,95.8,95.7,97.1,72.5
"C[C@]1(O)C[C@@H](c2nc(-c3ccc4ccc(-c5ccccc5)nc4c3)c3c(N)nccn32)C1 + C=CCn1c(=O)c2cnc(Nc3ccc(N4CCN(C)CC4)cc3)nc2n1-c1cccc(C(C)(C)O)n1 [MK1775] (first compound 0.4 µM, partner dose 0.02 µM)",95.3,85.7,110,100,74.6,80.9,62.4,83.8,84.5,78
"COc1cc([C@@H]2c3cc4c(cc3[C@@H](O[C@@H]3O[C@@H]5CO[C@@H](C)O[C@H]5[C@H](O)[C@H]3O)[C@H]3COC(=O)[C@H]23)OCO4)cc(OC)c1O [etoposide] + O=C(O)c1ccc(-c2c[nH]c3ncc(-c4ccccc4)cc23)cc1C1CCCC1 [GSK650394] (first compound 0.02 µM, partner dose 0.16 µM)",82.1,92.1,102,72.9,85.7,86.3,96.8,102,80.6,60.9
"COc1cc([C@@H]2c3cc4c(cc3[C@@H](O[C@@H]3O[C@@H]5CO[C@@H](C)O[C@H]5[C@H](O)[C@H]3O)[C@H]3COC(=O)[C@H]23)OCO4)cc(OC)c1O [etoposide] + COc1cc(Nc2ncc(F)c(Nc3ccc4c(n3)NC(=O)C(C)(C)O4)n2)cc(OC)c1OC [Tamatinib] (first compound 0.02 µM, partner dose 0.4 µM)",86.6,79,89.3,77.1,77.1,85,97.3,90.4,50.4,71.2
"Cn1cnc2c(F)c(Nc3ccc(Br)cc3Cl)c(C(=O)NOCCO)cc21 [selumetinib] + Oc1cc(-c2nc(-c3ccccc3)[nH]c2-c2ccncc2)ccc1Cl [L779450] (first compound 0.015 µM, partner dose 0.2 µM)",108,100,86.6,81.9,57.8,42.6,87,90.3,85,50.9
"CCN(CC)CCNC(=O)c1c(C)[nH]c(/C=C2\C(=O)Nc3ccc(F)cc32)c1C [sunitinib] + NCC(=O)Nc1ccc(-n2nc(C(F)(F)F)cc2-c2ccc3c(ccc4ccccc43)c2)cc1 [OSU03012] (first compound 0.4 µM, partner dose 1 µM)",102,71.9,110,121,81.6,73.9,43,120,95.2,82.9
"CCN(CC)CCNC(=O)c1c(C)[nH]c(/C=C2\C(=O)Nc3ccc(F)cc32)c1C [sunitinib] + O=C1NC(=O)/C(=C/c2ccc(-c3ccc(F)cc3O)o2)S1 [AS252424] (first compound 0.4 µM, partner dose 1 µM)",99.2,83.3,113,92.6,94.3,110,80.4,108,72.1,104
"CCN(CC)CCNC(=O)c1c(C)[nH]c(/C=C2\C(=O)Nc3ccc(F)cc32)c1C [sunitinib] + Oc1cc(-c2nc(-c3ccccc3)[nH]c2-c2ccncc2)ccc1Cl [L779450] (first compound 0.4 µM, partner dose 0.2 µM)",86.8,84.6,101,84.2,87,68.2,65.6,109,96.4,64
"Cn1cnc2c(F)c(Nc3ccc(Br)cc3Cl)c(C(=O)NOCCO)cc21 [selumetinib] + C=CCn1c(=O)c2cnc(Nc3ccc(N4CCN(C)CC4)cc3)nc2n1-c1cccc(C(C)(C)O)n1 [MK1775] (first compound 0.015 µM, partner dose 0.02 µM)",76.6,85.8,130,90.7,73.7,56.6,72.8,105,78.8,72.9
"COc1cc([C@@H]2c3cc4c(cc3[C@@H](O[C@@H]3O[C@@H]5CO[C@@H](C)O[C@H]5[C@H](O)[C@H]3O)[C@H]3COC(=O)[C@H]23)OCO4)cc(OC)c1O [etoposide] + Cn1cc(/C=C2\C(=O)Nc3cccnc32)c2ccccc21 [GW441756] (first compound 0.02 µM, partner dose 0.4 µM)",96,91.9,96.9,106,94.6,93,93.4,90.8,80.9,84.8
"COc1cc([C@@H]2c3cc4c(cc3[C@@H](O[C@@H]3O[C@@H]5CO[C@@H](C)O[C@H]5[C@H](O)[C@H]3O)[C@H]3COC(=O)[C@H]23)OCO4)cc(OC)c1O [etoposide] + NCC(=O)Nc1ccc(-n2nc(C(F)(F)F)cc2-c2ccc3c(ccc4ccccc43)c2)cc1 [OSU03012] (first compound 0.02 µM, partner dose 1 µM)",87.1,62.9,110,92.8,77.7,62.6,50.5,93.4,87.4,83.3
"Cn1cnc2c(F)c(Nc3ccc(Br)cc3Cl)c(C(=O)NOCCO)cc21 [selumetinib] + CCCCCCCCCCCC1=C(O)C(=O)C=C(O)C1=O [Embelin] (first compound 0.015 µM, partner dose 1.2 µM)",98.1,96.8,108,102,92.5,84.8,64.5,126,102,75.9
"C[C@]1(O)C[C@@H](c2nc(-c3ccc4ccc(-c5ccccc5)nc4c3)c3c(N)nccn32)C1 + CCc1ccc(CCOc2ccc(CC3SC(=O)NC3=O)cc2)nc1 [pioglitazone] (first compound 0.4 µM, partner dose 2 µM)",96.5,90.2,114,74.2,96.4,79.8,88.1,93.5,88.4,72.4
"COc1cc([C@@H]2c3cc4c(cc3[C@@H](O[C@@H]3O[C@@H]5CO[C@@H](C)O[C@H]5[C@H](O)[C@H]3O)[C@H]3COC(=O)[C@H]23)OCO4)cc(OC)c1O [etoposide] + N#Cc1c(O)c2c(-c3ccc(-c4ccccc4O)cc3)csc2[nH]c1=O [A769662] (first compound 0.02 µM, partner dose 2 µM)",92.5,94.2,102,94.8,90.5,100,79.8,96.2,110,84.6
"C[C@]1(O)C[C@@H](c2nc(-c3ccc4ccc(-c5ccccc5)nc4c3)c3c(N)nccn32)C1 + Oc1cc(-c2nc(-c3ccccc3)[nH]c2-c2ccncc2)ccc1Cl [L779450] (first compound 0.4 µM, partner dose 0.2 µM)",73.1,102,89.8,81,76.2,85.4,76.1,93.8,84.8,83.4
"CCN(CC)CCNC(=O)c1c(C)[nH]c(/C=C2\C(=O)Nc3ccc(F)cc32)c1C [sunitinib] + O=C(O)c1ccc(-c2c[nH]c3ncc(-c4ccccc4)cc23)cc1C1CCCC1 [GSK650394] (first compound 0.4 µM, partner dose 0.16 µM)",106,93.1,102,97.9,83.5,99.2,77.9,95.4,97.8,94.6
"Cn1cnc2c(F)c(Nc3ccc(Br)cc3Cl)c(C(=O)NOCCO)cc21 [selumetinib] + Cn1cc(/C=C2\C(=O)Nc3cccnc32)c2ccccc21 [GW441756] (first compound 0.015 µM, partner dose 0.4 µM)",99.3,92.2,141,96.5,73.8,91.6,74.1,84.5,66.8,63.6
